# Test results: PubChem BioAssay AID1986 (Sanford-Burnham Center for Chemical Genomics, 2009)
# Some of the results follow. These are further read-outs of the screen, such as a control signal, another cell line or another target. No call is given for them.
# Assay: inhibitors of HIV fusion peptide binding, primary screen, biochemical, uHTS, fluorescence dequenching (AID 1986)
# Details: cell-free peptide binding, 30 min, measured here: repeat confirmation average inhibition, at 18.6 µM, stronger effect = higher value
row,SMILES,inhibition
1,Cc1ccc(-c2cc(C(=O)Nc3ccc(S(=O)(=O)Nc4onc(C)c4C)cc3)c3ccccc3n2)cc1,50.8%
2,COc1ccc(-c2csc(NC(=O)CSc3nc(C)nc4sc(C(=O)O)c(C)c34)n2)cc1,83.2%
3,O=C(O)c1cc(N/N=C/c2ccc(-c3ccccc3)cc2)ccc1Cl,58.4%
4,N#Cc1c(-c2ccccc2)nc(SCc2cccc(Cl)c2)[nH]c1=O,68.7%
5,CCOC(=O)c1sc(N2C(=O)C(O)=C(C(=O)c3ccco3)C2c2cccc([N+](=O)[O-])c2)nc1C (stereo not drawn),59%
6,COc1ccccc1N1N=C(C(=O)c2ccccc2)C2C(=O)N(c3ccc(Br)cc3)C(=O)C21 (stereo not drawn),63.2%
7,O=C(O)C(c1ccccc1)N1C(=O)/C(=C\c2ccc(O)c(O)c2)SC1=S (stereo not drawn),79.4%
8,COc1ccc(-c2csc(NC(=O)c3ccccc3NS(=O)(=O)c3ccc(C)cc3)n2)cc1,67.6%
9,O=C1NN(c2ccc(Cl)cc2)C(=O)/C1=C\c1ccc(-c2cccc(C(=O)O)c2)o1,67.6%
10,O=c1cc(-c2ccccc2Cl)oc2c(NS(=O)(=O)c3cc(Cl)cc(Cl)c3O)ccc(O)c12,80.1%
11,CCOc1ccc2nc(NC(=O)CSc3nc(-c4ccccc4)c(C#N)c(=O)[nH]3)sc2c1,69.1%
12,Cc1oc2c(cc(NS(=O)(=O)c3ccc(C(C)C)cc3)c3ccccc32)c1C(=O)O,55%
13,O=C(O)c1ccc(/C=N/NC(=O)c2ccc(CN3c4cccc5cccc(c45)S3(=O)=O)cc2)cc1,52.8%
14,CCS(=O)(=O)C1=NSC2=NC(=O)/C(=C\c3ccc(OS(=O)(=O)c4ccccc4)cc3)C(=N)N21,62.3%
15,CCOc1ccc(C2C(C(=O)Nc3ccccc3)=C(C)N=c3s/c(=C/c4cccc(OCC(=O)O)c4)c(=O)n32)cc1 (stereo not drawn),51.3%
16,CCCCCNC(=O)c1ccc2c(=O)[nH]c3c(C(=O)NCC4CCCO4)sc(=S)n3c2c1 (stereo not drawn),52%
17,COc1cc(/C=C2\SC(=O)N(Cc3ccc(F)cc3)C2=O)cc([N+](=O)[O-])c1O,68.5%
18,COc1cc(/C=C2\SC(=O)N(c3ccccc3Cl)C2=O)cc([N+](=O)[O-])c1O,59.4%
19,O=C(O)CN1C(=O)/C(=C\c2cc(Br)ccc2OCc2ccccc2F)SC1=S,83.3%
20,CN(C)S(=O)(=O)c1cccc(-c2nn(-c3ccccc3)cc2/C=C2\SC(=S)NC2=O)c1,74.1%
21,O=C1/C(=C2\C(=O)N(Cc3ccc(F)cc3)c3ccccc32)SC(=S)N1CCS(=O)(=O)O,69.8%
22,O=C1NN(c2ccc(Cl)c(Cl)c2)C(=O)/C1=C/c1ccc(-c2ccccc2C(=O)O)o1,57.2%
23,O=C(O)c1cccc(NC(=S)N/N=C/c2ccccc2OCc2cccc(Br)c2)c1,75.9%
24,COc1cc(/C=C2\S/C(=N/S(=O)(=O)c3ccc(C)cc3)NC2=O)c([N+](=O)[O-])cc1OC,68.9%
25,C=CCOc1ccc(C(c2c(C(=O)O)[nH]c3ccccc23)c2c(C(=O)O)[nH]c3ccccc23)cc1,81.1%
26,Cc1c(CCC(=O)O)c(=O)oc2c(C)c3occ(-c4ccc(Br)cc4)c3cc12,76%
27,O=[N+]([O-])c1cc([N+](=O)[O-])c2oc(-c3ccccc3)c(Br)c2c1O,88.2%

row,SMILES,inhibition
1,O=C(O)c1cccc(N/N=C/c2cc(Br)cc(Br)c2O)c1,69.3%
2,N#Cc1c(SCC(=O)Nc2nc3ccc(Br)cc3s2)sc2c(O)cc(=O)[nH]c12,68.3%
3,O=C(O)C[C@@H]1C(=O)O[C@@H]2C(COC(=O)c3cc(O)c(O)c(O)c3)O[C@@H](OC(=O)c3cc(O)c(O)c(O)c3)[C@@H](OC(=O)c3cc(O)c(O)c4c3[C@H]1[C@H](O)C(=O)O4)[C@H]2OC(=O)c1cc(O)c(O)c(O)c1 (stereo partly drawn),72.6%
4,O=C(Nc1ccc(Br)cc1C(=O)O)c1ccc2c(c1)C(=O)N(Cc1ccccc1)C2=O,76.2%
5,O=C(O)CCn1cc(/C=C/C(=O)c2ccc(Cl)cc2)c(-c2ccc(Br)cc2)n1,53.2%
6,COc1ccc(-c2cc(-c3ccc(Cl)cc3)c(C#N)c(SCC(=O)O)n2)cc1,73.1%
7,Cc1ccccc1N=C1NC(=O)/C(=C/c2cccn2-c2cccc(C(=O)O)c2)S1,63.5%
8,CCc1ccc(/C=C2/SC(=S)N(CCCC(=O)Nc3ccccc3C(=O)O)C2=O)cc1,59.4%
9,O=C(OCC1OC(n2ncc(=O)[nH]c2=O)C(OC(=O)c2ccccc2)C1OC(=O)c1ccccc1)c1ccccc1 (stereo not drawn),54.3%
10,CCOC(=O)c1c(N2C(=O)Nc3cc(Cl)c(Cl)cc3N2O)sc2c1CCCCC2,56.6%
11,CCOc1cc(/C=N/Nc2cccc(C(=O)O)c2)ccc1OC(=O)c1ccccc1,54.7%
12,O=C(Nc1cc(S(=O)(=O)N2CCCCC2)ccc1Cl)c1ccccc1NS(=O)(=O)c1ccc(F)cc1,66.5%
13,CCOC(=O)C1=C(C)N=c2s/c(=C\c3ccc(OCC(=O)O)cc3)c(=O)n2C1c1ccc(OC(C)C)cc1 (stereo not drawn),59.8%
14,O=C(O)c1[nH]c2ccccc2c1C(c1cccc(O)c1)c1c(C(=O)O)[nH]c2ccccc12,57.4%
15,O=C(CCCN1C(=O)/C(=C/c2cccs2)SC1=S)Nc1ccc(O)c(C(=O)O)c1,51.7%
16,O=C(CCN1C(=O)/C(=C/c2ccccc2Cl)SC1=S)Nc1ccccc1C(=O)O,51.4%
17,O=S(=O)(Nc1nc2ccccc2nc1Nc1cccc(S(=O)(=O)N2CCCCC2)c1)c1ccccc1,94%
18,COc1cc(/C=C(\C#N)c2nc3ccc(C)cc3[nH]2)cc([N+](=O)[O-])c1O,61.6%
19,COc1ccc(-c2nn(-c3ccccc3)cc2/C=C2/SC(=S)N(CCCC(=O)O)C2=O)c(C)c1,54.9%
20,O=C(O)c1ccccc1NS(=O)(=O)c1ccc(NNC(=S)Nc2ccc(OC(F)F)cc2)c([N+](=O)[O-])c1,83.8%
21,NS(=O)(=O)c1cc(C(=O)NC2CCSc3ccccc32)ccc1Cl (stereo not drawn),79.4%
22,N#Cc1c(-c2ccccc2)nc(SCc2cccc(C(F)(F)F)c2)[nH]c1=O,76.1%
23,Brc1ccc(N/N=C(/N=Nc2nn[nH]n2)c2ccccc2)cc1,68.3%
24,O=C(O)c1ccc(NS(=O)(=O)c2ccc3c(c2)C2C=CCC2C(c2ccccc2F)N3)cc1 (stereo not drawn),50.9%
25,CCOc1cc(/C=C2\C(=N)N3N=C(S(C)(=O)=O)SC3=NC2=O)ccc1OCCOc1cccc(OC)c1,75.7%
26,O=C(O)c1cccc2c(-c3ccccc3)c(-c3ccccc3)[nH]c12,60.5%
